The target in assay [1] is T1, AtMinD1_(1)–62-GFP^C (Arabidopsis thaliana) (UniProt Q9MBA2).
T1 sequence: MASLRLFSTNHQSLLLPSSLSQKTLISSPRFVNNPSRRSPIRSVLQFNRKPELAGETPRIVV
Put plainly: split reporter; GFP^C and GFP^N fusions co-expressed (35S promoter) in protoplasts of wild-type Arabidopsis (Col-0); reconstituted GFP fluorescence seen by microscopy.

The target in assay [2] is T2, cdm751–62-GFP^C (Arabidopsis thaliana) (UniProt Q9MBA2).
T2 sequence: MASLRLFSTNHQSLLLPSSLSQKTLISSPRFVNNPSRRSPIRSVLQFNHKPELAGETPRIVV
The assay is described as above.

For assay [3], the target named is T3, AtMinE1, full length, yeast two-hybrid fusion (pGBKT7) (Arabidopsis thaliana) (UniProt Q9C4Z7).
T3 sequence: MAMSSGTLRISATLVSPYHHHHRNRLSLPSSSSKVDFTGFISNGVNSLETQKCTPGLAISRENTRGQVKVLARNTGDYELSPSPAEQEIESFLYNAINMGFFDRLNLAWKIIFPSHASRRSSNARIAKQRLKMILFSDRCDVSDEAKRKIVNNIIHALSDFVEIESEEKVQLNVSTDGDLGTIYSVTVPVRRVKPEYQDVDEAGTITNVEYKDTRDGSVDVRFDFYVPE
The experiment in a line: two-hybrid; Gal4 system (pGADT7/pGBKT7) in S. cerevisiae Y2H Gold; growth on SD without Leu, Trp and His, with or without Aureobasidin A (40 ng/ml), 3-5 days at 28°C.

The target of assay [4] is T4, MCD1, full length, yeast two-hybrid fusion (pGBKT7) (Arabidopsis thaliana) (UniProt Q8GWA7).
T4 sequence: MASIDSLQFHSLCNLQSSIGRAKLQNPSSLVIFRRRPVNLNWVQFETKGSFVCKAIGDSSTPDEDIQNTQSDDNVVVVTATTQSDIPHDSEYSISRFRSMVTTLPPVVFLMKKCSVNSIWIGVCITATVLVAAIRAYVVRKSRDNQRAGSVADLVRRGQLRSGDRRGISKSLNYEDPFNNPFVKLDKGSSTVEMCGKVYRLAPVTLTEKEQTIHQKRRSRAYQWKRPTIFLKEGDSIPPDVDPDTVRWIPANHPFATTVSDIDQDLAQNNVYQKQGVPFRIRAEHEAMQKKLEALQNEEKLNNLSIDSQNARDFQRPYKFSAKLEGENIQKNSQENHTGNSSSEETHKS
The assay is described as above.

Assay [5] concerns the target T5, AtMinD1, full length, yeast two-hybrid fusion (Arabidopsis thaliana) (UniProt Q9MBA2).
T5 sequence: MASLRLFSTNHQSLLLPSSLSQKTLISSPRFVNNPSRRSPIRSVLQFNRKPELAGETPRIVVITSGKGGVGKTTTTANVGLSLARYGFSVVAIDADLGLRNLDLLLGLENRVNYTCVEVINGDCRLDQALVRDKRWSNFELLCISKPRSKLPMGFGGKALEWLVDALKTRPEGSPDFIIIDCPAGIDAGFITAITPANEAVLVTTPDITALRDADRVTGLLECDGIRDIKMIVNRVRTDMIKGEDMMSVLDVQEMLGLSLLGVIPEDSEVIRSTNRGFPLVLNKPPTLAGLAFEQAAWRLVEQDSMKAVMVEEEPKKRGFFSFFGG
The assay is described as above.

These are yes or no findings as the source states them, for the method shown. For some assays here: Binding seen in cells or lysates may run through a third protein. Some results given as binding are weak or reduced against the parent protein; the word gives no strength. Tags and fused reporters may be left off the sequences shown.

B1: MCD1-GFP^N (protein, UniProt Q8GWA7 53-349)
chain: CKAIGDSSTPDEDIQNTQSDDNVVVVTATTQSDIPHDSEYSISRFRSMVTTLPPVVFLMKKCSVNSIWIGVCITATVLVAAIRAYVVRKSRDNQRAGSVADLVRRGQLRSGDRRGISKSLNYEDPFNNPFVKLDKGSSTVEMCGKVYRLAPVTLTEKEQTIHQKRRSRAYQWKRPTIFLKEGDSIPPDVDPDTVRWIPANHPFATTVSDIDQDLAQNNVYQKQGVPFRIRAEHEAMQKKLEALQNEEKLNNLSIDSQNARDFQRPYKFSAKLEGENIQKNSQENHTGNSSSEETHKS
B1: the binding result in assay [1] was “binds”.

B2: AtMinE1-GFP^N (protein, UniProt Q9C4Z7 31-229)
chain: SSSKVDFTGFISNGVNSLETQKCTPGLAISRENTRGQVKVLARNTGDYELSPSPAEQEIESFLYNAINMGFFDRLNLAWKIIFPSHASRRSSNARIAKQRLKMILFSDRCDVSDEAKRKIVNNIIHALSDFVEIESEEKVQLNVSTDGDLGTIYSVTVPVRRVKPEYQDVDEAGTITNVEYKDTRDGSVDVRFDFYVPE
Consider B2, for which the binding result in assay [1] is “binds”; in assay [2], “no binding”.

B3: AtMinD1, full length, yeast two-hybrid fusion (protein, UniProt Q9MBA2 1-326)
chain: MASLRLFSTNHQSLLLPSSLSQKTLISSPRFVNNPSRRSPIRSVLQFNRKPELAGETPRIVVITSGKGGVGKTTTTANVGLSLARYGFSVVAIDADLGLRNLDLLLGLENRVNYTCVEVINGDCRLDQALVRDKRWSNFELLCISKPRSKLPMGFGGKALEWLVDALKTRPEGSPDFIIIDCPAGIDAGFITAITPANEAVLVTTPDITALRDADRVTGLLECDGIRDIKMIVNRVRTDMIKGEDMMSVLDVQEMLGLSLLGVIPEDSEVIRSTNRGFPLVLNKPPTLAGLAFEQAAWRLVEQDSMKAVMVEEEPKKRGFFSFFGG
On to B3, for which the binding result in assay [3] is listed as “binds weakly”; in assay [4], “binds”.

B4: AtMinD1(R49H), full length, yeast two-hybrid fusion (protein, UniProt Q9MBA2 1-326)
chain: MASLRLFSTNHQSLLLPSSLSQKTLISSPRFVNNPSRRSPIRSVLQFNHKPELAGETPRIVVITSGKGGVGKTTTTANVGLSLARYGFSVVAIDADLGLRNLDLLLGLENRVNYTCVEVINGDCRLDQALVRDKRWSNFELLCISKPRSKLPMGFGGKALEWLVDALKTRPEGSPDFIIIDCPAGIDAGFITAITPANEAVLVTTPDITALRDADRVTGLLECDGIRDIKMIVNRVRTDMIKGEDMMSVLDVQEMLGLSLLGVIPEDSEVIRSTNRGFPLVLNKPPTLAGLAFEQAAWRLVEQDSMKAVMVEEEPKKRGFFSFFGG
In the case of B4, the binding entry in assay [3] is “binds weakly”.

B5: ARC6-GFP^N (protein, UniProt Q9FIG9 68-801)
chain: ATLVSPPPSIDRPERHVPIPIDFYQVLGAQTHFLTDGIRRAFEARVSKPPQFGFSDDALISRRQILQAACETLSNPRSRREYNEGLLDDEEATVITDVPWDKVPGALCVLQEGGETEIVLRVGEALLKERLPKSFKQDVVLVMALAFLDVSRDAMALDPPDFITGYEFVEEALKLLQEEGASSLAPDLRAQIDETLEEITPRYVLELLGLPLGDDYAAKRLNGLSGVRNILWSVGGGGASALVGGLTREKFMNEAFLRMTAAEQVDLFVATPSNIPAESFEVYEVALALVAQAFIGKKPHLLQDADKQFQQLQQAKVMAMEIPAMLYDTRNNWEIDFGLERGLCALLIGKVDECRMWLGLDSEDSQYRNPAIVEFVLENSNRDDNDDLPGLCKLLETWLAGVVFPRFRDTKDKKFKLGDYYDDPMVLSYLERVEVVQGSPLAAAAAMARIGAEHVKASAMQALQKVFPSRYTDRNSAEPKDVQETVFSVDPVGNNVGRDGEPGVFIAEAVRPSENFETNDYAIRAGVSESSVDETTVEMSVADMLKEASVKILAAGVAIGLISLFSQKYFLKSSSSFQRKDMVSSMESDVATIGSVRADDSEALPRMDARTAENIVSKWQKIKSLAFGPDHRIEMLPEVLDGRMLKIWTDRAAETAQLGLVYDYTLLKLSVDSVTVSADGTRALVEATLEESACLSDLVHPENNATDVRTYTTRYEVFWSKSGWKITEGSVLAS
B5: in assay [1], the binding result is on record as “binds”.

B6: ARC6, full length, yeast two-hybrid fusion (pGADT7) (protein, UniProt Q9FIG9 1-801)
chain: MEALSHVGIGLSPFQLCRLPPATTKLRRSHNTSTTICSASKWADRLLSDFNFTSDSSSSSFATATTTATLVSPPPSIDRPERHVPIPIDFYQVLGAQTHFLTDGIRRAFEARVSKPPQFGFSDDALISRRQILQAACETLSNPRSRREYNEGLLDDEEATVITDVPWDKVPGALCVLQEGGETEIVLRVGEALLKERLPKSFKQDVVLVMALAFLDVSRDAMALDPPDFITGYEFVEEALKLLQEEGASSLAPDLRAQIDETLEEITPRYVLELLGLPLGDDYAAKRLNGLSGVRNILWSVGGGGASALVGGLTREKFMNEAFLRMTAAEQVDLFVATPSNIPAESFEVYEVALALVAQAFIGKKPHLLQDADKQFQQLQQAKVMAMEIPAMLYDTRNNWEIDFGLERGLCALLIGKVDECRMWLGLDSEDSQYRNPAIVEFVLENSNRDDNDDLPGLCKLLETWLAGVVFPRFRDTKDKKFKLGDYYDDPMVLSYLERVEVVQGSPLAAAAAMARIGAEHVKASAMQALQKVFPSRYTDRNSAEPKDVQETVFSVDPVGNNVGRDGEPGVFIAEAVRPSENFETNDYAIRAGVSESSVDETTVEMSVADMLKEASVKILAAGVAIGLISLFSQKYFLKSSSSFQRKDMVSSMESDVATIGSVRADDSEALPRMDARTAENIVSKWQKIKSLAFGPDHRIEMLPEVLDGRMLKIWTDRAAETAQLGLVYDYTLLKLSVDSVTVSADGTRALVEATLEESACLSDLVHPENNATDVRTYTTRYEVFWSKSGWKITEGSVLAS
B6: the binding entry in assay [5] was “binds”.
